Assay results as given in PubChem BioAssay AID1346428 (National Center for Advancing Translational Sciences (NCATS), 2018).
Among all 48,000 compounds or so, about 1,200 (2.5%) were called active. Another 2% or so got no clear call; they are omitted.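 How the source made its calls: active means activation of at least 60% and not above a set upper limit (about 1 call in 100 departs from these limits); inconclusive means activation of 40% to 60%, or above that upper limit; inactive means activation under 40%.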 The list shows a part of the results.

target: Probable G-protein coupled receptor 32 (Homo sapiens) (UniProt O75388); experiment: qHTS for Agonists of Human Resolvin D1 Receptor DRV1; conditions: CHO-K1 GPR32 beta-arrestin PathHunter luminescence, 90 min; at 76.9 µM; stronger effect = higher value; zero percent set by DMSO-only wells; further: 0% is about no effect
UniProt O75388, sequence (O75388 whole entry, looked up): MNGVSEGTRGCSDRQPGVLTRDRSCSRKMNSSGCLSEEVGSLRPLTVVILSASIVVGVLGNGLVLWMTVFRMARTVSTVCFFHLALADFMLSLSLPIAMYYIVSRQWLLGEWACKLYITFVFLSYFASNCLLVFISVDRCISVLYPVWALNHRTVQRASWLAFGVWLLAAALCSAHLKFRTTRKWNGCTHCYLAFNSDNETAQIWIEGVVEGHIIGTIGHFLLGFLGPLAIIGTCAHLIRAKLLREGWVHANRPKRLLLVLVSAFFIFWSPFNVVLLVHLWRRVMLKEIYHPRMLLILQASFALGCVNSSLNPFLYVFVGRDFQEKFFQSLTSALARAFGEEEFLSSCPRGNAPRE
Procedure, shortened: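 Readings come from a cell-based beta-arrestin complementation format: CHO-K1 GPR32 stable cells (2,500/well) treated 90 min with compounds, then beta-Gal substrate added for 1 h before chemiluminescence imaging.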

activation, inactive:
CCc1cccc(C)c1NC(=O)c1cc(S(=O)(=O)N(Cc2ccc(C(=O)OC)cc2)Cc2ccc(OC)c(OC)c2)ccc1F -20.3%, Cc1ccccc1Oc1nc2ccccn2c(=O)c1/C=C(\C#N)c1nc2ccccc2[nH]1 -8.72%, Cc1ccc2nc(-c3cccs3)c(Nc3c(C)cccc3C)n2c1 11.4%, CN(C)c1ccc(/C=C/c2nc(-c3ccccc3O)n(-c3ccccc3)n2)cc1 -7.6%, CC(C)CCNC(=O)CN1C(=O)CSc2ccc(S(=O)(=O)N3CCC(C)CC3)cc21 -11.6%, CCOC(=O)C1CCCN(c2nc3c(S(=O)(=O)c4ccc(CC)cc4)nnn3c3ccsc23)C1 (stereo not drawn) -23.3%, Cc1ccc2c(c1)c1c(c(=O)n(-c3cccc(Cl)c3)c(=O)n1CC(=O)NCC1CCCO1)n2C (stereo not drawn) 0.404%, Cc1c(C(=O)NCc2ccc(F)cc2)oc2ccc(S(=O)(=O)N3CCCCC3)cc12 18.5%, Cn1c(=O)[nH]c(=O)c2c1nc(N1CCOCC1)n2Cc1ccccc1 -21.6%, Cc1ccccc1OCC(=O)Nc1ccc(-c2nc3ccccc3o2)cc1 -3.73%, CCOC(=O)Cc1ccc(NC(=O)Nc2c[nH]c(=O)[nH]c2=O)cc1 38.7%, CCc1cccc(NC(=O)CCc2nc3cccnc3n2Cc2ccc(OC)cc2)c1 12.6%, CC(=O)c1cccc(NC(=O)C2CCN(S(=O)(=O)c3ccc4c(c3)CCCN4C(C)=O)CC2)c1 9.87%, Cc1ccc(-c2nc(C)c(CCNC(=O)c3cccs3)s2)cc1 17.8%, O=C(O)Cc1csc(-c2ccc(Cl)cc2)n1 -9.97%, Cc1c(C(=O)OCc2ccccc2)[nH]c2c1C(=O)CC(c1ccc(C(C)(C)C)cc1)C2 (stereo not drawn) 15.8%, CC1CCN(c2nn3c(=O)c(C(=O)NCCCOC(C)C)cnc3s2)CC1 -2.5%, Cc1ccc(CN2CCCn3nc(C(=O)NCCc4ccccc4C)cc3C2=O)cc1 16.9%, COc1cc(C(=O)Nc2ccccc2-c2nc(-c3ccccc3)no2)cc(OC)c1OC -1.62%, CCc1cccc(NC(=O)c2cc3c(=O)n(Cc4ccccc4)ccc3nc2C)c1 7.48%, CCN(CC)c1nc2ccccc2nc1C(=O)Nc1ccc(C(C)=O)cc1 -10.8%, Cc1ccc(C)c(NC(=O)CN(C)S(=O)(=O)c2cccc3nsnc23)c1 6%, Cc1cccc(N(C)c2nc3ccc(C(=O)c4ccccc4)cc3n3c(C)nnc23)c1 -36.6%, Cc1ccc(-n2nc(C(=O)Nc3ccc(F)cc3F)c3c4ccccc4n(C)c3c2=O)cc1 -5.13%, Cc1ccc(C)c(NC(=O)Cn2c(=O)n(CCC(C)C)c(=O)c3cccnc32)c1 6.43%, CC(C)(C)C1CCc2c(sc(NC(=O)c3cc4ccccc4c(=O)o3)c2C(N)=O)C1 (stereo not drawn) 23.8%, CCCCCOc1ccc(/C=C/C(=O)Nc2sc(C)c(C)c2C(=O)OCC)cc1OC -8.84%, COc1ccccc1NC(=O)Cn1cc(S(=O)(=O)Cc2ccccc2)c2ccccc21 0.532%, COc1ccc(CNc2ncnc3c2nc2n3CCCC2)cc1 -13.4%, COc1ccc(CCn2c3c(c(=O)[nH]c2=O)C(NC(=O)c2ccc(Cl)cc2)(C(F)(F)F)C(=O)N3)cc1OC (stereo not drawn) 17.8%, COC(=O)CSc1ncc2c(n1)-c1ccccc1N(Cc1ccc(Cl)cc1)S2(=O)=O -1.89%, Cn1ncc2c(Nc3cc(C(F)(F)F)ccc3Cl)ncnc21 -10.2%, Cc1cccc(OCC(=O)Nc2ccccc2C(=O)OCc2cc(=O)n3ccsc3n2)c1 -0.369%, Cc1cccc(CNC(=O)Cn2c(-c3cccs3)cc3ccccc32)c1 -12.1%, CCN(c1cccc(C)c1)S(=O)(=O)c1cc(Br)cc2c1N(C(C)=O)C(C)C2 (stereo not drawn) 17.4%, CC(NC(=O)c1ccc2c(c1)N(Cc1ccc(Cl)cc1)C(=O)CS2)c1ccccc1 (stereo not drawn) -6.55%, O=C(Cn1ccnc1[N+](=O)[O-])NCCO -12.8%, CCCN(c1c(C)n(C)n(-c2ccccc2)c1=O)S(=O)(=O)c1ccc(C)cc1 9.42%, COc1ccc2c(c1)c1c(c(=O)n(-c3ccccc3C)c(=O)n1Cc1cccc(C(F)(F)F)c1)n2C -1.84%, CC(C)OC(=O)c1ccc(Cn2nnc3sc4c(c3c2=O)CCCC4)cc1 19.5%, CCc1ccc(-n2nnc(-c3nc(-c4cccs4)no3)c2N)cc1 10.7%, CC1CCN(C(=O)CSc2n[nH]c(-c3ccc(F)cc3)n2)CC1 -11.7%, CCc1nc2ccc(C(=O)N3CCN(c4cc(Cl)ccc4C)CC3)cc2nc1CC -22.2%, Cc1ccc(S(=O)(=O)NCC2CCC(C(=O)NCCc3ccccc3)CC2)cc1 (stereo not drawn) -5.75%, CC(C)(C)C(=O)Nc1ccc(-c2nc3ccc(NC(=O)C(C)(C)C)cc3[nH]2)cc1 -15.5%, CCC(=O)N1CCc2cc(CNS(=O)(=O)c3cc(OC)ccc3OC)ccc21 -9.06%, CCOC(=O)c1cnc2cc(C(F)(F)F)ccc2c1Nc1ccc(F)cc1F 4.26%, CC(=O)Nc1ccc(S(=O)(=O)NC2(C(F)(F)F)C(=O)Nc3c2c(=O)[nH]c(=O)n3-c2cccc(Cl)c2)cc1 (stereo not drawn) -11.9%, Cc1cccc(-c2nc(CN3CCCC(C(=O)N4CCN(c5cc(Cl)ccc5C)CC4)C3)c(C)o2)c1 (stereo not drawn) 38.5%, O=C(c1ccc(F)cc1)c1cn(Cc2ccccc2F)c2cc3c(cc2c1=O)OCCO3 -6.69%, Oc1ccc(Cl)cc1C1=Nc2ccccc2N=C(c2ccccc2)C1 4.59%

activation, active:
COc1ccc(NC(=O)[C@H]2O[C@@H]3OC(C)(C)O[C@@H]3[C@H]3OC(C)(C)O[C@H]32)c(OC)c1 97%, COc1ccc(NC(=O)c2c(C)oc3ccc(O)c(CN4CCC(C)CC4)c23)cc1Cl 82.6%
